About 14,000 (4.5%) of roughly 310,000 compounds showed an effect of 50% or more. Effects have a minus sign here. Some of the results follow.
target: human ether-à-go-go-related gene (hERG) potassium channel (human, UniProt Q12809); experiment: primary screen, population patch clamp on CHO cells stably expressing hERG
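Also: peak tail current of the secondary pulse compared with the same well before compound.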

Chain of human ether-à-go-go-related gene (hERG) potassium channel (Q12809 whole entry, looked up): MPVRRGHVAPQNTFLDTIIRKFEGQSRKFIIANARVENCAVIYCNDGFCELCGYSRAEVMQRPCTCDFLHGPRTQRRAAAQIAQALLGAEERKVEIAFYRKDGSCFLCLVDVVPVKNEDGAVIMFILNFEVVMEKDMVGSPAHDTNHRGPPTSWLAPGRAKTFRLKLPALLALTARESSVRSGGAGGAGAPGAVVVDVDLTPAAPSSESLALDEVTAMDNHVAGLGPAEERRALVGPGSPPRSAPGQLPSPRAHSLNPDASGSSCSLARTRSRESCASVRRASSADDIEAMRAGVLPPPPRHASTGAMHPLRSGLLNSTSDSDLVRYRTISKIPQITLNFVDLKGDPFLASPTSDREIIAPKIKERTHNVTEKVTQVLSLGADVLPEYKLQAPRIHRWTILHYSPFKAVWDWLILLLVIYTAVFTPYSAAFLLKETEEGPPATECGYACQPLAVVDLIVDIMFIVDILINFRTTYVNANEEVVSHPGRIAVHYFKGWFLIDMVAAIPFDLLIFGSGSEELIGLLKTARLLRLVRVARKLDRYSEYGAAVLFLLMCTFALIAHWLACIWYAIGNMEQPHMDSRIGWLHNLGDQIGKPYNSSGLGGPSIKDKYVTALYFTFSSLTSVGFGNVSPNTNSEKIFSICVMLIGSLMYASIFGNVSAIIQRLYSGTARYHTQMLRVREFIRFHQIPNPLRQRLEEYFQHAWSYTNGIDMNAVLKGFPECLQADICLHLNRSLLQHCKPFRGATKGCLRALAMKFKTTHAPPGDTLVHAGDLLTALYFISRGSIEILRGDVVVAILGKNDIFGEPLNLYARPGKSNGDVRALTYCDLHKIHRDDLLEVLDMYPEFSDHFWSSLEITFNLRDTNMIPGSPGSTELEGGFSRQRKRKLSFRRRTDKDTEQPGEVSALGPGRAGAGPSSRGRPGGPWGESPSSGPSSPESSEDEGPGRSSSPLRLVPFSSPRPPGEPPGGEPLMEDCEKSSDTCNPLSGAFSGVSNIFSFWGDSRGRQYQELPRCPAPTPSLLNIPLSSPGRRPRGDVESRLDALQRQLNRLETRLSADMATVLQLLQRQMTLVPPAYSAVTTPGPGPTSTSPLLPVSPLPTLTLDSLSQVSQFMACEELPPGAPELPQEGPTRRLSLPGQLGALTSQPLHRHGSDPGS

SMILES | hERG current change (%, negative = inhibition) at 10uM
Cc1ccc(N2C(=O)CC(Nc3cccc4ccccc34)C2=O)cc1 (stereo not shown) | 27.6%
CCC1CSC(Nc2ccc(C(=O)/C=C/c3ccc(Br)cc3)cc2)=N1 (stereo not shown) | 0.372%
CCN(CC)C(=O)Cn1nnc(-c2ccc(S(C)(=O)=O)cc2)n1 | 13.6%
Cc1ccc2nc(-c3ccncc3)c(NC3CCCC3)n2c1 | -54.2%
Nc1cc(C(F)(F)F)ccc1OCC1CCCO1 (stereo not shown) | 6.54%
CC(C)(C)c1ccc(S(=O)(=O)Nc2ccc3c(c2)COC3=O)cc1 | 17.3%
Cc1nc2scc(C)n2c(=O)c1S(=O)(=O)N1CCN(c2cccc(C(F)(F)F)c2)CC1 | -3.03%
CNC(=S)NNC(=O)c1cccn(Cc2cccc(C(F)(F)F)c2)c1=O | 22.2%
O=C1NC(=O)N(CCC2=CCCCC2)C(=O)/C1=C/c1cccs1 | 14.7%
COc1ccccc1N1CCN(CC(=O)NCCc2ccc(S(N)(=O)=O)cc2)CC1 | 15.8%
O=C(N/N=C/c1ccc(N2CCCCC2)o1)c1ccccc1[N+](=O)[O-] | 11.6%
Cc1ccc(C(=O)Oc2ccccc2C(=O)N2CCOCC2)cc1 | 6.81%
O=C(c1ccc(CS(=O)c2ccccc2Cl)o1)N1CCOCC1 (stereo not shown) | 1.49%
CCN(CC)CCN1C(=O)c2ccccc2NC1c1ccc(F)cc1 (stereo not shown) | -64.3%
COC(=O)c1c(C)c2c(C)cc3ccccn3c-2c1C(=O)OC | -4.02%
O=[N+]([O-])c1ccccc1S(=O)(=O)N1CCSCC1 | -12.5%
CC1CCN(C(=O)CSCC(=O)O)CC1 | 3.55%
Cc1csc(SCC(=O)Nc2sccc2C(N)=O)n1 | 14.2%
CN(Cc1ccc(F)cc1)C(=O)c1cccc(S(=O)(=O)NCc2ccccc2)c1 | -44.1%
CCOC(=O)C1(C)C=C(Nc2ccc(OC)cc2)C(=O)N1c1ccc(OC)cc1 (stereo not shown) | 25.9%
O=C(NCCNS(=O)(=O)c1ccccc1)N1CCOCC1 | 18.3%
Cc1cc2cc(CCNC(=O)c3ccc(C)c([N+](=O)[O-])c3)c(=O)[nH]c2cc1C | 4.59%
Cc1cc(C)nc(Nc2n[nH]c(-c3ccccc3Cl)n2)n1 | 4.1%
Nc1ccc(C2(c3ccc(N)cc3)CN3CCC2CC3)cc1 | 5.9%
COC(=O)C1CCN(C(=O)c2cc(-c3ccc(Cl)s3)nc3ccccc23)CC1 | -32.8%

Source: article PMC4336329 (PLoS ONE, 2015)
